# Values joined by “and” are separate entries in the source; they are usually repeats but may differ in a detail not shown here. Equal entries are not always repeated. Inconclusive means that the source gave no clear call. Such entries were picked first, then a sample of the others. Potencies of inconclusive entries are doubtful fits and often do not repeat. Active and inactive are the calls of the source. Calls follow the shape of the dose curve; as a rule, active = well fitted inhibition curve with a large enough effect; inconclusive = small, poorly fitted or top-dose-only effect; inactive = no such curve, though single readings can be large or run the other way.
# Assay: Primary qHTS for inhibitors of nuclear receptor binding SET domain protein 2 (NSD2) in an RCH-ACV wild type WT cells (2C) (AID 1645877); also: nearly all actives have a fitted effect of over 70% in size
# Conditions: RCH-ACV (leukaemia line) NSD2 WT (2C) viability, CellTiter-Glo, 72 h; series mostly up to 44.9 µM; activity change, negative = cell killing: at the top concentration
# % is scaled to controls: 0 for no effect and ±100 for the full control effect; potency is read from the fitted curve at half-maximal effect; tags tell the direction and shape of the fitted curve.
Compound,Potency,"activity change, negative = cell killing",outcome
C=C(c1ccc(C(=O)O)cc1)c1cc2c(cc1C)C(C)(C)CCC2(C)C,"inconclusive: 50.1 µM [inhibitor, single point]",–,–
CC(C)C(=O)Nc1ccc([N+](=O)[O-])c(C(F)(F)F)c1,"inconclusive: 2.66 µM [inhibitor, partial curve, poor fit] and inconclusive: 20.9 µM [inhibitor, single point]",–,–
C=Cc1c(C)c2cc3[nH]c(cc4nc(cc5nc(cc1[nH]2)C(C)=C5CCC(=O)O)C(CCC(=O)O)=C4C)c(C)c3C=C,"inconclusive: 23.7 µM [inhibitor, partial curve, poor fit]",–,–
Cc1[nH]c(=O)c(C#N)cc1-c1ccncc1,inactive,–,–
C[C@H](NC(=O)c1sccc1OCc1ccc(Cl)cc1)c1ccccc1,"inconclusive: 20.9 µM [inhibitor, partial curve]",–,–
Cc1ccc(N)cc1O,"inconclusive: 34.4 µM [inhibitor, single point]",–,–
O=C(O)c1ccccc1NCCc1ccccc1,–,inactive: -6.16%,–
Cc1cc2c(s1)Nc1ccccc1N=C2N1CCN(C)CC1,"inconclusive: 21.1 µM [inhibitor, single point]",–,–
CN(C)c1cc(NC(=O)CNC(C)(C)C)c(O)c2c1C[C@@H]1C[C@H]3[C@H](N(C)C)C(=O)C(C(N)=O)=C(O)[C@@]3(O)C(=O)C1=C2O,"inconclusive: 29.9 µM [inhibitor, single point]",–,–
CC(=O)OC(C)OC(=O)C(C)c1ccc(-c2ccccc2)c(F)c1 (stereo not given),–,–,inactive
Cc1ccc(-n2nc(C(C)(C)C)cc2NC(=O)Nc2ccc(OCCN3CCOCC3)c3ccccc23)cc1,"inconclusive: 29.1 µM [inhibitor, single point] and inconclusive: 20.9 µM [inhibitor, partial curve, poor fit]",–,–
Cc1c(C(=O)O)c(O)cc2c1C(=O)c1c(O)c([C@@H]3O[C@H](CO)[C@@H](O)[C@H](O)[C@H]3O)c(O)c(O)c1C2=O,"inconclusive: 21.1 µM [inhibitor, single point]",–,–
Oc1ccc(O)cc1,active: 15 µM,–,–
COc1cc(C(=S)N2CCOCC2)ccc1O,"inconclusive: 23.7 µM [inhibitor, single point]",–,–
NC(=O)N/N=C/c1ccc([N+](=O)[O-])o1,"inconclusive: 26.6 µM [inhibitor, single point]",–,–

# From PubChem BioAssay (NCATS)
